Out of some 310,000 compounds screened, about 2,200 (0.71%) showed an effect of 50% or more. Effects have a minus sign here. Some of the results follow.

For this assay, the target named is human ether-à-go-go-related gene (hERG) potassium channel (human, UniProt Q12809). Nature of the assay: primary screen, population patch clamp on CHO cells stably expressing hERG.
Sequence of human ether-à-go-go-related gene (hERG) potassium channel (Q12809 whole entry, looked up): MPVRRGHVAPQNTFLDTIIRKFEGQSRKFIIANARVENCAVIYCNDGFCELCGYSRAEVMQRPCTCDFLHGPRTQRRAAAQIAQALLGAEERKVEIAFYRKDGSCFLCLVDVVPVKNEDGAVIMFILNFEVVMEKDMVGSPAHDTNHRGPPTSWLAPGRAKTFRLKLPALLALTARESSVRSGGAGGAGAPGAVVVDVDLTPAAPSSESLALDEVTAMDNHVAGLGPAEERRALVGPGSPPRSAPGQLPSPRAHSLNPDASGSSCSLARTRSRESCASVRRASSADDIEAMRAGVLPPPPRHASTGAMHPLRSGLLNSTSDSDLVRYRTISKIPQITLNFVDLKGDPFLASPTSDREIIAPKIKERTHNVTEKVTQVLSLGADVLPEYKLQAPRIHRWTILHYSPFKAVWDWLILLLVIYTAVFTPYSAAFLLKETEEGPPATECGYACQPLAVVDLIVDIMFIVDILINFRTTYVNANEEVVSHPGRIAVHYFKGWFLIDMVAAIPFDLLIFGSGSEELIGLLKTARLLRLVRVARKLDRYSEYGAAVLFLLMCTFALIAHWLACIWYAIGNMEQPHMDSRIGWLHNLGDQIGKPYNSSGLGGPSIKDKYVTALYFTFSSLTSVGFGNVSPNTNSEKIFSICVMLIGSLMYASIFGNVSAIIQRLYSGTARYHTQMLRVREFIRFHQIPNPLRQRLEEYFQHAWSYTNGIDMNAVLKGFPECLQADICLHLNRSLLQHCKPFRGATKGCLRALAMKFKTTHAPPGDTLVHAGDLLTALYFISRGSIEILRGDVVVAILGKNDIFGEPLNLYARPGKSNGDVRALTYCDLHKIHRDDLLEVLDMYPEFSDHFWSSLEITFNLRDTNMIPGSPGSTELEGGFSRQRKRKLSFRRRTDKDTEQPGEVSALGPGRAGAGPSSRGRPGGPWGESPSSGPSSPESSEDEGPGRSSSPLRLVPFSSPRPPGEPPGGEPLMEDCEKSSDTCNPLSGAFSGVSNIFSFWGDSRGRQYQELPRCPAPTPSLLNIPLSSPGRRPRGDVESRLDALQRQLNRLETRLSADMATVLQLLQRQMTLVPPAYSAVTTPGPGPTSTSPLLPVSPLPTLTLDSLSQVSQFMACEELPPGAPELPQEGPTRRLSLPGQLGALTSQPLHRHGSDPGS
For `CCCN(CCC)c1nc(Cl)nc(NCCN2CCOCC2)n1`, the “hERG current change (%, negative = inhibition) at 1uM” value was 9.86%.
Take `Cn1c(COc2ccc(Cl)cc2Cl)nnc1SCC(=O)NCC1CCCO1` (stereo not shown): the “hERG current change (%, negative = inhibition) at 1uM” value is reported as 1.31%.
On to `O=C(O)C1CCC(N2C(=O)c3cccc([N+](=O)[O-])c3C2=O)CC1` (stereo not shown), for which the “hERG current change (%, negative = inhibition) at 1uM” value is on record as 16.5%.
The figure for `CC(C)(C)n1ncc2c(=O)n(CC(=O)Nc3ccccc3)cnc21` is 21.6%; for `Cc1ccc(S(=O)(=O)CNC(=O)c2ccccc2)cc1` it is 8.5%; for `COc1cc(/C=C2\SC(=O)N(CCNC(=O)c3sc4cc(F)ccc4c3Cl)C2=O)cc(OC)c1OC` it is 6.76%.
Regarding `O=C(COc1cccnc1[N+](=O)[O-])Nc1ccc2c(c1)CCC2`, the “hERG current change (%, negative = inhibition) at 1uM” value is 1.86%.
As for `O=C(Nc1cccc([N+](=O)[O-])c1)NC1CCS(=O)(=O)C1` (stereo not shown), the figure is -4.19%; as for `CCC(C)C(=O)Nc1ccc(S(=O)(=O)Nc2nccs2)cc1` (stereo not shown), -1.93%; as for `CCC(c1nc2ccccc2c(=O)n1-c1cccnc1)N1C(=O)c2ccccc2C1=O` (stereo not shown), 6.44%.
On to `Cc1nn(Cc2ccccc2)c(C)c1C(=O)OCC(=O)Nc1ccccc1SCC#N`, for which the “hERG current change (%, negative = inhibition) at 1uM” value is listed as -4.84%.
As to `Cc1ccc(C)c(NC(=O)CCC(=O)NN=C2CCCC2)c1`, the “hERG current change (%, negative = inhibition) at 1uM” value came to 11%.
As for `O=C(Nc1nc2ccc(Cl)cc2s1)c1ccco1`, the figure is -4.56%; as for `CCOc1ccc(N(C)Cc2cc(=O)oc3ccc(OCC)cc23)cc1`, 10.5%.
As for `O=C(COc1ccccc1Cl)NCCNC(=O)c1ccco1`, the “hERG current change (%, negative = inhibition) at 1uM” value was found to be 8.48%.
In the case of `COc1ccccc1Nc1[nH+]c(C)cs1.[Br-]`, the “hERG current change (%, negative = inhibition) at 1uM” value is given as 3.59%.
The figure for `Cc1ccc(S(=O)(=O)N(Cc2cc3ccc(C)cc3[nH]c2=O)c2ccccc2)cc1` is 3.29%; for `COc1ccccc1NS(=O)(=O)c1cccc(-n2c(O)c(C=Nc3ccccc3C(=O)O)c3ccccc3c2=O)c1` it is 7.89%.
As to `COc1ccc(-c2cc(C(=O)Nc3cc(C)on3)no2)cc1OC`, the “hERG current change (%, negative = inhibition) at 1uM” value worked out at 8.44%.
For the compound `COc1ccc(C(=O)N2CCCC(CNC(=O)c3ccccc3Cl)C2)o1` (stereo not shown), the “hERG current change (%, negative = inhibition) at 1uM” value stood at 13.1%.
`CC1CCCC(C)N1/N=C/c1ccc(N(C)C)cc1` (stereo not shown): the “hERG current change (%, negative = inhibition) at 1uM” value stood at 11.2%.
As for `N#CC(C(N)=O)=C1CCC2(CC1)OCCCCO2`, the “hERG current change (%, negative = inhibition) at 1uM” value was found to be 6.67%.
Consider `Cc1ccc(C(=O)Nc2ncn[nH]2)cc1`, for which the “hERG current change (%, negative = inhibition) at 1uM” value is reported as 13.2%.
On to `COc1cc(C)ccc1OCCOCCN(C)Cc1ccccc1.O=C(O)C(=O)O`, for which the “hERG current change (%, negative = inhibition) at 1uM” value was -9.62%.
Consider `Cc1nn(Cc2ccc(Cl)cc2)c(Cl)c1/C=N/NC(=O)CNc1ccccc1F`, for which the “hERG current change (%, negative = inhibition) at 1uM” value was 13.7%.
As for `CC(=O)NC1CCCc2c1cnn2-c1ccc(C(C)(C)C)cc1` (stereo not shown), the figure is 8.29%; as for `CCOc1ccc(CN2CCNC(=O)C2CC(=O)NCCc2ccccn2)cc1` (stereo not shown), 12.5%.
Turning to `Cl.NCCCCCc1nnc(SCc2ccccc2Cl)o1`, the “hERG current change (%, negative = inhibition) at 1uM” value was -9.02%.
`O=C(CCC(=O)OCC(=O)c1cccc([N+](=O)[O-])c1)Nc1ccccc1Cl`: the “hERG current change (%, negative = inhibition) at 1uM” value is reported as 4.27%.
In the case of `COc1ccc(Cl)cc1NC(=O)CN(C)CC(=O)N1CC(=O)Nc2ccccc21`, the “hERG current change (%, negative = inhibition) at 1uM” value was determined as 3.83%.
The figure for `COc1ccc(CNCc2cccc(Cl)c2)cc1` is 9.59%; for `O=C(N/N=C/c1ccc(Cl)c(Cl)c1)c1ccc2nc[nH]c2c1` it is 14.7%; for `Cc1ccc(NC(=O)CSc2nc(=O)n(CCN3CCOCC3)c3c2CCCC3)cc1` it is -1.54%.
For the compound `CC(=O)Nc1cccc(-n2nnc(SCC(=O)c3ccccc3)n2)c1`, the “hERG current change (%, negative = inhibition) at 1uM” value was 13.3%.
As for `COc1cc(OC)cc(C(=O)Nc2cccc(NC(=O)c3cc(OC)cc(OC)c3)n2)c1`, the figure is 9.84%; as for `CCC(C)NC(=O)c1ccccc1NC(=O)c1ccc(CSc2ccccc2)cc1` (stereo not shown), 14.6%; as for `CCOc1ccc(C(=O)COC(=O)c2ccc(-n3cnnn3)cc2)cc1`, 15.4%.
As for `C#Cc1ccc([C@@H]2C=C(C(=O)NCc3ccccc3)O[C@H](OCCCCO)C2)cc1`, the figure is -0.517%.
Regarding `CC1(C)CC(=O)c2cc(NC(=O)c3ccc(F)cc3)c(=O)oc2C1`, the “hERG current change (%, negative = inhibition) at 1uM” value is given as 9%.
As to `CS(=O)(=O)c1ccc(-c2nnn(CC(=O)Nc3ccc4c(c3)OCCO4)n2)cc1`, the “hERG current change (%, negative = inhibition) at 1uM” value came out at 8.3%.
With `Cc1nn(Cc2nnc(SCC(=O)Nc3cccc(C(F)(F)F)c3)n2C)c(C)c1[N+](=O)[O-]`, the “hERG current change (%, negative = inhibition) at 1uM” value was -12.4%.
The figure for `COC(=O)C1=C(C(=O)OC)[C@@H]2N(Cc3ccccc3)c3ccccc3[C@@]23C[C@@H](C(=O)OC)N(C(=O)C2CCC2)C3=N1` is 7.32%.
Consider `Cc1cc(NS(=O)(=O)c2ccc(NC(=S)NC(=O)c3ccc(Br)cc3)cc2)no1`, for which the “hERG current change (%, negative = inhibition) at 1uM” value was 1.97%.
On to `Cc1ccc(S(=O)(=O)N2CCOCC2)cc1C(=O)Nc1ccccc1F`, for which the “hERG current change (%, negative = inhibition) at 1uM” value is reported as 18.2%.
As for `Cc1ccc(/C=N/n2cnc3sc(C)c(C)c3c2=O)o1`, the “hERG current change (%, negative = inhibition) at 1uM” value stood at 16.5%.
With `COc1cc(C(c2nnnn2C(C)(C)C)N2CCN(c3nc4ccccc4s3)CC2)ccc1O` (stereo not shown), the “hERG current change (%, negative = inhibition) at 1uM” value is reported as 3.06%.
The figure for `O=S(=O)(Nc1ccc(Cc2ccncc2)cc1)c1cccs1` is -0.666%; for `CCCCNCc1cc(Br)c(OCC(=O)N2CCOCC2)c(OC)c1.Cl` it is 2.69%.
Turning to `O=c1[nH]c(O)c(/C=C2\C=Nc3ccc(Br)cc32)[nH]1`, the “hERG current change (%, negative = inhibition) at 1uM” value came out at 14.9%.
Take `CCCc1nnc(NC(=O)CSc2ncn[nH]2)s1`: the “hERG current change (%, negative = inhibition) at 1uM” value is listed as 10.8%.
With `CCOc1ccccc1CNCCNCC(C)O.Cl` (stereo not shown), the “hERG current change (%, negative = inhibition) at 1uM” value is 4.76%.
For `C=CCn1c(-c2ccc(Cl)cc2)cnc1SC(C)C(=O)NC(N)=O` (stereo not shown), the “hERG current change (%, negative = inhibition) at 1uM” value is reported as -0.152%.
`O=c1c2ccccc2nc(-c2ccco2)n1/N=C/c1ccco1`: the “hERG current change (%, negative = inhibition) at 1uM” value is on record as 17.5%.
For `Cc1ccc(-c2nn3c(C)nnc3s2)cc1NC(=O)c1ccc(OC(C)C)cc1`, the “hERG current change (%, negative = inhibition) at 1uM” value is reported as -1.79%.
For `O=C(Cc1ccc(Cl)cc1)NCC(=O)N1CCCC1`, the “hERG current change (%, negative = inhibition) at 1uM” value was 0.842%.
In the case of `CC(=O)Nc1ccc(NC(=O)C(C)Sc2nnc(-c3cccs3)o2)cc1` (stereo not shown), the “hERG current change (%, negative = inhibition) at 1uM” value is recorded as 15.3%.
On to `CCOC(=O)/C(C#N)=C\c1c(OCC)n(CC)c2ccccc12`, for which the “hERG current change (%, negative = inhibition) at 1uM” value is 2.72%.
On to `CCc1ccc(NC(=S)NC(=O)c2c(-c3ccccc3Cl)noc2C)cc1`, for which the “hERG current change (%, negative = inhibition) at 1uM” value came out at 5.32%.
Take `c1ccc(-c2ccc(C3=Nn4c(nnc4-c4cccs4)SC3)cc2)cc1`: the “hERG current change (%, negative = inhibition) at 1uM” value came out at 9.69%.
The figure for `O=C(COC(=O)C1CCN(C(=O)c2ccc(Cl)cc2)CC1)c1ccco1` is -2.41%.
`Cc1cc(OCc2cc(C(=O)N(C)C(C)c3ccccn3)no2)cc(C)c1Cl` (stereo not shown): the “hERG current change (%, negative = inhibition) at 1uM” value is recorded as 11.9%.
In the case of `O=C1C(c2ccccc2)SC(=Nc2ccccc2)N1S(=O)(=O)c1ccccc1` (stereo not shown), the “hERG current change (%, negative = inhibition) at 1uM” value amounted to 5.15%.
The figure for `CC(=O)N/C(=C\c1ccccc1)C(=O)OCc1ccccc1` is 4.66%; for `O=C(NCC1CCCCC1)c1cc([N+](=O)[O-])ccc1Cl` it is 16.2%; for `Cc1nc(N)sc1-c1csc(Nc2cccc(C(=O)O)c2)n1` it is 6.2%.
`CCOC(=O)CSc1nnc(CNC(=O)c2ccc(OC)cc2OC)n1-c1ccc(OC)cc1`: the “hERG current change (%, negative = inhibition) at 1uM” value is on record as -31.4%.
With `Cc1cc(NC(=O)c2cccc(S(=O)(=O)N3CCC(C)CC3)c2)no1`, the “hERG current change (%, negative = inhibition) at 1uM” value is listed as 9.36%.
As for `O=C(NCCc1cccc(Cl)c1)C1CCC(=O)N(Cc2ccc(Cl)cc2)C1` (stereo not shown), the figure is -8.57%.
In the case of `O=C(CSc1ccccn1)Nc1nc2c(ccc3ccccc32)s1`, the “hERG current change (%, negative = inhibition) at 1uM” value was found to be 8.48%.
Take `CCOC(=O)NC(=S)Nc1c(C)n(C)n(-c2ccccc2)c1=O`: the “hERG current change (%, negative = inhibition) at 1uM” value is 13.5%.
The figure for `O=[N+]([O-])c1ccc(N=Nc2ncc[nH]2)cc1` is 12.3%; for `Cc1ccc(NC(=O)c2ccc(NCCN)c([N+](=O)[O-])c2)cc1Cl` it is 1.72%; for `COc1ccc(/C=C(\C#N)C(=O)OCC(=O)Nc2ccc(-c3nc4ccc(C)cc4s3)cc2)cc1` it is 4.6%.
For `Cc1ccccc1C(=O)NNC(=O)CSc1nc(-c2ccccc2)cc(=O)[nH]1`, the “hERG current change (%, negative = inhibition) at 1uM” value is listed as 11.6%.
For the compound `Cc1ccc(Cl)cc1NC(=O)Nc1cccs1`, the “hERG current change (%, negative = inhibition) at 1uM” value stood at 9.5%.
Take `COc1ccc(OC)c(C2C=C(c3ccc(C)c(C)c3)Nc3nnnn32)c1` (stereo not shown): the “hERG current change (%, negative = inhibition) at 1uM” value was 3.78%.
As to `COC(=O)c1cc(COC(=O)c2nc3nc(C)cc(C)n3n2)oc1C`, the “hERG current change (%, negative = inhibition) at 1uM” value worked out at 5.25%.
Regarding `CCOc1ccccc1CNn1nnnc1N`, the “hERG current change (%, negative = inhibition) at 1uM” value came to 21%.
As to `Cc1ccccc1OCc1csc(N)n1`, the “hERG current change (%, negative = inhibition) at 1uM” value is recorded as 15.1%.
With `O=C(NC(NC1CCS(=O)(=O)C1)C(Cl)(Cl)Cl)c1cccc(Cl)c1` (stereo not shown), the “hERG current change (%, negative = inhibition) at 1uM” value amounted to 12.1%.
Regarding `Cc1ccc(C)c(C(=O)NC(C)c2ccc(-n3ccnc3)cc2)c1` (stereo not shown), the “hERG current change (%, negative = inhibition) at 1uM” value was -5.71%.
As for `Cc1ccccc1N1CCN(C2CCCN(C(=O)c3ocnc3C)C2)CC1` (stereo not shown), the “hERG current change (%, negative = inhibition) at 1uM” value is -2.56%.
Consider `COc1cccc2oc3ccc(C#Cc4ccccn4)cc3c(=O)c12`, for which the “hERG current change (%, negative = inhibition) at 1uM” value is reported as 19.5%.
With `COc1ccc(C2CC(c3cccs3)=NN2S(C)(=O)=O)cc1` (stereo not shown), the “hERG current change (%, negative = inhibition) at 1uM” value worked out at 10.2%.
As for `NNC(=O)CCc1nc2ccc(O)cc2[nH]1`, the figure is 24.8%.
In the case of `COc1ccc(C(=O)COC(=O)c2cc(S(=O)(=O)N3CCCCC3)ccc2N2CCOCC2)c(OC)c1`, the “hERG current change (%, negative = inhibition) at 1uM” value is listed as 0.129%.
With `COc1ccc(Nc2oc(COc3ccc(Cl)cc3)nc2C#N)cc1`, the “hERG current change (%, negative = inhibition) at 1uM” value was determined as 14.6%.
Turning to `CN1CCN(NC(=O)c2cccc3ccccc23)CC1`, the “hERG current change (%, negative = inhibition) at 1uM” value was 6.3%.

For the origin of these results see publication PMC4336329 (PLoS ONE, 2015).
